The other results are listed elsewhere or left out. At the low end of the ranking, values are background and their order means little. The protein was read in a cell extract, so binding may be indirect.
biological target: T1, HNF4alpha8 (COS-7 nuclear extract) (UniProt P41235-5); test: protein-binding microarray; settings: COS-7 nuclear extract on double-stranded Agilent 4x180k PBM; binding buffer, salt, pH and temperature not given; high values mean tight binding; double strand, one strand shown; sequences stand for … in …GCCTAGGGAGATTAGAGTATCGGTCGA
T1 sequence: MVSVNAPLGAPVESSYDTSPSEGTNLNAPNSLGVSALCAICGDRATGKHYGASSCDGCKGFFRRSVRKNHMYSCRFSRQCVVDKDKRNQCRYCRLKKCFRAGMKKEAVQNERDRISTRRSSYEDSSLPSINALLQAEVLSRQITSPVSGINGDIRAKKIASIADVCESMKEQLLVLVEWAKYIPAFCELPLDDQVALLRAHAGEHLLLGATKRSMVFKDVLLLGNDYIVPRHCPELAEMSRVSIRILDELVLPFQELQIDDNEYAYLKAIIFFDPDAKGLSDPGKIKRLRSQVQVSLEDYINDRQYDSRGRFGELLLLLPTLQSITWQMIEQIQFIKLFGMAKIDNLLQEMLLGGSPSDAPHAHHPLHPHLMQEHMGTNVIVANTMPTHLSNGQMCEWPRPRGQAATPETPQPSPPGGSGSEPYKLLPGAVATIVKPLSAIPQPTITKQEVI

| Sequence | binding signal (log2 normalized intensity) |
| --- | --- |
| TTAGTGCATAACTTTTGAATCCTCTTTGAG | -0.917 |
| GGAATGCTGAAGGGAAGGCTGCCGTCCTCA | -1.32 |
| CATTTTGTCTTTTCTCCCCTGACTACCAGC | 2.34 |
| AGTTGGAGAAGAGCAAAGATCATCTGGTGG | 1.16 |
| AAGCTGAATATTTATCAGATACAGGAGATC | 0.82 |
| CCCACTTGTATGTCCAAGGGTCACTCGACA | 4.12 |
| ACAGGGCTGGGATAACCGAGGCTGACAGCA | -1.32 |
| AATGAGGACGTGTGTGTTCTGGACTTCTCT | 2.4 |
| TTCGTTGAAAGCTGCTTCCCAGTTGCTCTG | -1.13 |
| CCGAGGCCTTGAGCATACAAAACCCCTTAT | 1.53 |
| GAAACACATTCTTAGACAACACACCACCTG | -1.29 |
| CATCTTCTTATCTGAGGTTTGACTTTGAGG | 2.01 |
| TGCGGTAATCCTTACGGCCCTGTGGTGTTC | 1.63 |
| ACGTCTGTTAACCAAGATACTGGGTCAGAG | 0.44 |
| AGGAGTGTCTTTCTCCTTGAACACAGTGTT | 1.24 |
| GCCCTTTGACCTCTCTCTCCTAACTATGGT | 6.06 |
| TGGTGAGTCAGTTCCCCTGCGGACTCTGGA | 2.91 |
| ACTTATCAGAGGAAATTCAGATCAAAGCAA | -1.27 |
| AGGGTGACACTGCTCTCTCCAGGGGAGGGT | -1.31 |
| AACCCCCAAAACTGCCTGATAATCTTATCA | 2.77 |
| GTGAGGCTGTGATGTTTGCCCATGATCATA | 0.346 |
| GGCTGTTTCACAAGTTTAGCCAAGCAAACA | -1.21 |
| GGGGTAAGCAAGGCTCTTAGCAGAAGCCCT | -1.43 |
| ATAATGTCAAAAATCTTAAGGAGGAGTGCT | -1.35 |
| TAGAACTCAGTGTGAACTCAATGCTGCTGA | -1.4 |

| Sequence | binding signal (log2 normalized intensity) |
| --- | --- |
| AGAATTACAAACAGCCCTGACATTCTTGAG | -1.09 |
| TCCCCACGTGGCAATCATTCTGTCTGCCTT | -0.77 |
| CATTGCCACACTATTTACACAGCTGATGGA | -1.28 |
| AGGCCAAACAAAAATATGGACTTTGGAATT | 8.4 |
| CTCCAGAGTCCAAACTGGGACCTGTGACAC | 1.35 |
| TATCTCCTCTGTAGGGCAGCAGCCGGCCTC | -1.28 |
| CTGAATCTCCCAGTGCTTTGATCTTCAACT | 0.419 |
| ATTATCTTTATTATCCCAGTAGAGAAACAA | 0.637 |
| GCAAGGCATGGTGCTTCGCACTTCAGCACC | 1.86 |
| TTTCCCAACAGGTGTTAAAATAACGACCTT | 2.41 |
| CCACACTGGTAACCTTTAGTCTCCAGATAA | 2.95 |
| AAGGTGGAACTCAAGATAGTTCAGCCATCA | -1.39 |
| CAGCTTGATAATCCCCATGGGACCAATACA | -1.16 |
| TTTGCACTTGTTTTTTCAGGTGTTGCTCTC | 1.51 |
| GTCCTACAGGACATTAATCAGTCGCGTATC | -1.19 |
| TCGGGATTATGGTAGGCAGCCTCTGAGATG | -1.42 |
| TTGACCGCTGCCTCCCACCCCCACGGTGCG | 5.08 |
| CATGGTGACTCTAGTCAATGTATTTTATTC | 1.11 |
| CTGGCTTCCCTTTGATCTTTCCCTTCCTGG | 1.4 |
| AGTAACAGGGCACATGTACACAGGAATATC | -1.27 |
| TTTAGGGTAGCCTGGGTTAAAGTCCGTTAC | 5.51 |
| CCCGTGTGGCCGCGAGCACCGCGCGCGCAA | -1.18 |
| CACACTGGGAATTGGGATGGCAGCTTCATT | -1.29 |
| ACCCAGTCTTAGGGACTAAGCTTGTAGACC | -1.27 |
| CAAAACTGGAAATTCACGTCATTTTGTCAC | 0.672 |

| Sequence | binding signal (log2 normalized intensity) |
| --- | --- |
| AATCCCTTAGGCTTTTGCACTTTACTCAGA | 3.94 |
| TGTCACACTGGCCTTTGCCCTCGCTGGCGG | 5.25 |
| GAATGGCCAGAGTTCCTGTGCAAGCCCCTG | -0.986 |
| GCTGATGGGACCAAAGGTGAAGGGGTCACC | 4.33 |
| TGAAACTCAGCATACAATGAATATTCAGAC | -1.24 |
| TGGGGCAGGGAAATATGTTCCACCCAGGGT | -1.13 |
| TAACCTTCTGCTGGATGCCCAGGGATTCCT | -1.27 |
| GTTGAACCTCTGTCCTTGGCCTCACAGACA | -1.01 |
| TTATCCCTCACAATCTTAAGATAAGGTCTT | 0.934 |
| GATGTTTAGCTATCAGTGTTGACCTCTGGA | 6.06 |
| CTTGCCCAAGGGCATGGGAAGCAGTGAGGG | -1.36 |
| AAGGAAACTGCTTGGGCCCCTCCCTCACAC | 2.16 |
| CTGAATGAGCTCTGGGGTCCTCTGCTGCCC | 1.32 |
| CAACGGTGAGTCAAGCACTTCTCACATCAC | -1.39 |
| GATAGGCAAAGTGGCTAGGACCTTTGAACC | 7.23 |
| TTCCTCCCACTCTGACATCCCCCTTTCTCT | 3.43 |
| CCCCCATTTGGTAATGGGCCCCCATTACCA | 3.9 |
| GATTAAAAGCACATAAGAGAAAAATCTTCA | -1.27 |
| TCATTTCTGCTTGCAACCAAAGGAGTCCTG | -0.447 |
| TATTTTAAGTTGCAATGCATGCTGCCAAAC | -1.41 |
| CCATCCTCCCACCTCAGCCTCTTGAGTAGC | 1.58 |
| ACTTGGCTCACATGATTGTGGAGGATGGGA | 0.476 |
| AAGGGTCAGCCTGCAAGTTAGGACAGCCCC | 1.53 |
| TAAAAGGTAACATCAAAGCCAGGACTTCTA | -1.29 |
| ACAGCAGGCTCACAAGATTGCATTCTTTGA | -1.38 |

| Sequence | binding signal (log2 normalized intensity) |
| --- | --- |
| CAAGCTGACAAACATGTATCAGTGATAGAC | -0.0274 |
| CTAAAGGAAGGGAGGTGAGTGCTAGCATTG | -1.23 |
| CTCTCCTATTCAGGTATTTGCTCTGTGATA | 1.2 |
| CTGTTCGATGTATACAGTATCTATAGTTAT | 1.1 |
| GTCTTGAGCGCAAATGATCAAAGGTCGGTT | 6.58 |
| TTCAGTCTTTGTCTTAGCCTGCTCTTTTCC | 1.12 |
| CTGCTTCCAAAACATTGTAGAATTATCCAG | -0.813 |
| ATCTTAGCTTCAGCTTTGCTTAGACCGGCA | -1.21 |
| CAAAGGTTGGACTGAGGACCACATGAGTAA | 0.766 |
| GGTGGTTTGGGTAATAACATGTAATTGCAT | 0.771 |
| GTACATTGCACCCTCCAGGAGCCCCTTACC | 2.01 |
| TCTAATGAACTGATTAGAACATTAAGTCCA | 1.5 |
| CTTATCCAAAGCTGCTGGGAGGTAGCTCAA | -1.12 |
| TCCTGGGAGAACAAACCTTATCTCTCAAGG | -1.24 |
| GCTAGAGAAAAAGAAAAGCCTTGTGGCAGT | -1.26 |
| CCTTGTTCTCAGAGATCAAAGGTGAGTGGG | 4.22 |
| GGCGTCTTATCAGCCCCCATGTCAGGGAAG | 2.78 |
| CAAAGTACATATTTACTTACCTTTTCTAAT | 0.989 |
| ACCTAGAGGAGAGAGTAAATAATTGATGAA | -1.41 |
| AGGCTAGTAACACTCACATTCCACGTTTGG | -0.281 |
| GATGCTAGGTTTGTGAGTCCAAAGGTCAGC | 9.81 |
| GTAGCTCAAACAGTCTAAAAACCATAGACA | -1.26 |
| CTGCTTGGGAGAACCTGTGCTTCTGGTTCT | 0.312 |
| TACGCAACTGAAATTGCACTCTTTGACTAA | -0.153 |
| CATTTGCTTGACCCGGGTACTGGAAACTGG | 1.61 |

| Sequence | binding signal (log2 normalized intensity) |
| --- | --- |
| GCAGAGCAGTTTAGAGAAAGGGTCAAAGGT | 6.23 |
| ACTTCAAAAGCCGGGGAAAGGGAAAAAGGG | -1.3 |
| AACAGCTGTGCCATGCTTTTCAGTGCAAGG | -1.23 |
| GCGCCGGGGGGACGCGCTTGGGCGACGGAC | -1.27 |
| AGATACTATAATTAGAATCTGCAGGATCCC | -1.13 |
| ATCATAGTGTTTGCCTTATTTGAACACAGT | 1.81 |
| CCTCCCCCTTGGTGTTTAAACACATTTTTT | 2.52 |
| ACATTGGAATGCGGGCTCCACCACTTGCTC | -1.29 |
| AGTCCAGCTGTGCCCCAGTCCTTCAGTCCT | 0.453 |
| ACTTAAAAGAAGCTACTAGCAAATCTGCCC | -0.288 |
| ATGACCCTAATGGGGTACTTGAACCCTACT | 3.93 |
| GTTCCAAACCTACACAGACCCTCTTTTCTT | -1.08 |
| CCAGTGGAATGCAAATATAGAAATAAAAGA | -1.3 |
| TGCAGATAAGCCACGAGCCTGCCTGCTCCT | -1.19 |
| AGATGGATTACATGGGAGATAGAGCAGTGG | -1.26 |
| GGACTTTGTGCAAATGGAAAATTGTAATCT | 2.53 |
| TTAAGAAGTAGGTGTGCCTCCTCCATCTCC | -0.958 |
| GAAATGTAGTGACAGAAGGGAGAGTCCAAG | 0.199 |
| TACAGTTCTGGAGGTGAGAAGCCTGAAATG | -1.34 |
| AAGAATTCTTTCTCAAATATGTTTAACCTG | 1.33 |
| TAAAGTCTACAAGTGGATATTCAGACCTCT | 0.293 |
| CCCTTCCTGGCCAACATCCAGGCCTGGCAG | -1.39 |
| ATAAGGCGTAGTTCAGAGAAAACGAGGCAC | -1.12 |
| CGCTTTCATGAGATGAAAGCTTCTGCGGAA | -1.12 |
| TGCAAGTACGATTGGCTGGACATCTGGGAT | -1.03 |

| Sequence | binding signal (log2 normalized intensity) |
| --- | --- |
| TGCTTTCTTATCTGGGGGCCATTCCTCTAT | 1.4 |
| TTAATGCCTGGGAACACAATAGGAATTCAA | -1.3 |
| CCTCCATTAACTAACCTTTGAACCAGATGG | 5.69 |
| ATGCAATTTCTGAGAGAGAAAGAGACAGAG | -1.36 |
| TCAGGTTTCAAATACTCCAGTCATTGTACA | 0.913 |
| CACTTTAGGTGCTCTTGGCTAAGACAGGGG | -1.37 |
| CCTTTGTATATTCCCTTTGTATGGCAGGGG | 2.11 |
| AAACAGGGAGCAGGCAGATTTGACCTACGG | 2.58 |
| ATTTCACAAAGGGCAAAGTCCCCTTTCCTC | 6.36 |
| GACACACCTAGGGAGTTAATCACAGGATTT | -1.21 |
| GGGAACAAAACTTCACCTCCCCTAGACTTA | 2.07 |
| ACACAATATTATGTTTTGTTATCTGTGCCA | 0.628 |
| GTTCCAAAGTCCACCGTGGTGTAGAGGCCC | 4 |
| CCTTATGTAACTGTAACTATATTGACCACC | 1.98 |
| TGGAGTTTGCCCTTCACAAATTAGACAAGG | 2.42 |
| ACAGATTAAGTCACGTGGAGATAACACACA | -1.01 |
| CAGACCTTTGCCCTTTGTTTACATAGCTCC | 4.61 |
| CCTCTGCCTCTTGACCCCTTGGCCCCGCTG | 4.87 |
| GTAGACTAACGTATGGACTTTCTGATGTCA | 2.18 |
| GCAGTTTCTGCTATCTGCCTGCAGGAGAGA | -1.08 |

Reference: PMC10726135
